# Assay results: the supplement of paper PMC8728848
# This is one part of the list.
# Columns and labels:
# Assay in all cases: glycan array binding signal (z-score within array); higher = stronger binding
# Conditions in all cases: glycan notation: IUPAC condensed, linker removed
# [1] = molecular target: GlcNAc(a1-3)Gal(b1-4)GlcNAc
# Procedure, shortened: (§1)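 The binding signal is a Z-score computed within each array and averaged over linkers. Arrays of the same protein sequence at different concentrations or buffers were also averaged together. Data originate from 3228 arrays in the Consortium for Functional Glycomics database, kept only where the protein sequence was available.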
# [2] = molecular target: GlcNAc(a1-4)Gal(b1-3)GlcNAc
# Procedure, shortened: as §1
# [3] = molecular target: GlcNAc(a1-4)Gal(b1-4)GalNAc
# Procedure, shortened: as §1
# [4] = molecular target: GlcNAc(a1-4)Gal(b1-4)GlcNAc
# Procedure, shortened: as §1
# [5] = molecular target: GlcNAc(a1-4)Gal(b1-4)GlcNAc(b1-3)Gal(b1-4)Glc
# Procedure, shortened: as §1
# [6] = molecular target: GlcNAc(a1-4)Gal(b1-4)GlcNAc(b1-3)Gal(b1-4)GlcNAc
# Procedure, shortened: as §1
# [7] = molecular target: GlcNAc(a1-4)Gal(b1-4)GlcNAc(b1-3)Gal(b1-4)GlcNAc(b1-3)Gal(b1-4)GlcNAc
# Procedure, shortened: as §1
# [8] = molecular target: GlcNAc(a1-4)Gal(b1-4)GlcNAc(b1-3)Gal(b1-4)[Fuc(a1-3)]GlcNAc(b1-3)Gal(b1-4)[Fuc(a1-3)]GlcNAc
# Procedure, shortened: as §1
# [9] = molecular target: GlcNAc(a1-6)Gal(b1-4)GlcNAc
# Procedure, shortened: as §1
# [10] = molecular target: GlcNAc(b1-2)Gal(b1-3)GalNAc
# Procedure, shortened: as §1
# [11] = molecular target: GlcNAc(b1-2)Man(a1-3)[GlcNAc(b1-2)Man(a1-6)]Man(b1-4)GlcNAc(b1-4)GlcNAc
# Procedure, shortened: as §1
# [12] = molecular target: GlcNAc(b1-2)Man(a1-3)[GlcNAc(b1-2)Man(a1-6)]Man(b1-4)GlcNAc(b1-4)[Fuc(a1-6)]GlcNAc
# Procedure, shortened: as §1
# [13] = molecular target: GlcNAc(b1-2)Man(a1-3)[GlcNAc(b1-4)][GlcNAc(b1-2)Man(a1-6)]Man(b1-4)GlcNAc(b1-4)GlcNAc
# Procedure, shortened: as §1
# [14] = molecular target: GlcNAc(b1-2)Man(a1-3)[GlcNAc(b1-4)][GlcNAc(b1-2)Man(a1-6)]Man(b1-4)GlcNAc(b1-4)[Fuc(a1-6)]GlcNAc
# Procedure, shortened: as §1
# [15] = molecular target: GlcNAc(b1-2)[GlcNAc(b1-4)]Man(a1-3)[GlcNAc(b1-2)Man(a1-6)]Man(b1-4)GlcNAc(b1-4)GlcNAc
# Procedure, shortened: as §1
# [16] = molecular target: GlcNAc(b1-2)[GlcNAc(b1-4)]Man(a1-3)[GlcNAc(b1-4)][GlcNAc(b1-2)Man(a1-6)]Man(b1-4)GlcNAc(b1-4)GlcNAc
# Procedure, shortened: as §1
# [17] = molecular target: GlcNAc(b1-2)[GlcNAc(b1-4)]Man(a1-3)[GlcNAc(b1-4)][GlcNAc(b1-2)[GlcNAc(b1-6)]Man(a1-6)]Man(b1-4)GlcNAc(b1-4)GlcNAc
# Procedure, shortened: as §1
# [18] = molecular target: GlcNAc(b1-2)[GlcNAc(b1-4)]Man(a1-3)[GlcNAc(b1-4)][GlcNAc(b1-2)[GlcNAc(b1-6)]Man(a1-6)]Man(b1-4)GlcNAc(b1-4)[Fuc(a1-6)]GlcNAc
# Procedure, shortened: as §1
# [19] = molecular target: GlcNAc(b1-2)[GlcNAc(b1-6)]Man(a1-6)[GlcNAc(b1-2)Man(a1-3)]Man(b1-4)GlcNAc(b1-4)GlcNAc
# Procedure, shortened: as §1
# [20] = molecular target: GlcNAc(b1-2)[GlcNAc(b1-6)]Man(a1-6)[GlcNAc(b1-2)Man(a1-3)]Man(b1-4)GlcNAc(b1-4)[Fuc(a1-6)]GlcNAc
# Procedure, shortened: as §1
# [21] = molecular target: GlcNAc(b1-2)[GlcNAc(b1-6)]Man(a1-6)[GlcNAc(b1-4)][GlcNAc(b1-2)Man(a1-3)]Man(b1-4)GlcNAc(b1-4)GlcNAc
# Procedure, shortened: as §1
# GlcNAc(b1-3)Fuc = molecular target: GlcNAc(b1-3)Fuc
# Procedure, shortened: as §1
# GlcNAc(b1-3)Gal = molecular target: GlcNAc(b1-3)Gal
# Procedure, shortened: as §1
# [22] = molecular target: GlcNAc(b1-3)Gal(b1-3)GalNAc
# Procedure, shortened: as §1
# GlcNAc(b1-3)Gal(b1-4)Glc = molecular target: GlcNAc(b1-3)Gal(b1-4)Glc
# Procedure, shortened: as §1
# [23] = molecular target: GlcNAc(b1-3)Gal(b1-4)GlcNAc
# Procedure, shortened: as §1
# [24] = molecular target: GlcNAc(b1-3)Gal(b1-4)GlcNAc(b1-2)Man(a1-3)[GlcNAc(b1-3)Gal(b1-4)GlcNAc(b1-2)Man(a1-6)]Man(b1-4)GlcNAc(b1-4)GlcNAc
# Procedure, shortened: as §1
# [25] = molecular target: GlcNAc(b1-3)Gal(b1-4)GlcNAc(b1-2)Man(a1-3)[GlcNAc(b1-3)Gal(b1-4)GlcNAc(b1-2)Man(a1-6)]Man(b1-4)GlcNAc(b1-4)[Fuc(a1-6)]GlcNAc
# Procedure, shortened: as §1
# [26] = molecular target: GlcNAc(b1-3)Gal(b1-4)GlcNAc(b1-2)[GlcNAc(b1-3)Gal(b1-4)GlcNAc(b1-6)]Man(a1-6)[GlcNAc(b1-3)Gal(b1-4)GlcNAc(b1-2)Man(a1-3)]Man(b1-4)GlcNAc(b1-4)GlcNAc
# Procedure, shortened: as §1
# [27] = molecular target: GlcNAc(b1-3)Gal(b1-4)GlcNAc(b1-3)Gal(b1-4)GlcNAc
# Procedure, shortened: as §1
# [28] = molecular target: GlcNAc(b1-3)Gal(b1-4)GlcNAc(b1-3)Gal(b1-4)GlcNAc(b1-2)Man(a1-3)[GlcNAc(b1-3)Gal(b1-4)GlcNAc(b1-3)Gal(b1-4)GlcNAc(b1-2)Man(a1-6)]Man(b1-4)GlcNAc(b1-4)GlcNAc
# Procedure, shortened: as §1
# [29] = molecular target: GlcNAc(b1-3)Gal(b1-4)GlcNAc(b1-3)Gal(b1-4)GlcNAc(b1-2)Man(a1-3)[GlcNAc(b1-3)Gal(b1-4)GlcNAc(b1-3)Gal(b1-4)GlcNAc(b1-2)Man(a1-6)]Man(b1-4)GlcNAc(b1-4)[Fuc(a1-6)]GlcNAc
# Procedure, shortened: as §1
# [30] = molecular target: GlcNAc(b1-3)Gal(b1-4)GlcNAc(b1-3)Gal(b1-4)GlcNAc(b1-2)[GlcNAc(b1-3)Gal(b1-4)GlcNAc(b1-3)Gal(b1-4)GlcNAc(b1-6)]Man(a1-6)[GlcNAc(b1-3)Gal(b1-4)GlcNAc(b1-3)Gal(b1-4)GlcNAc(b1-2)Man(a1-3)]Man(b1-4)GlcNAc(b1-4)[Fuc(a1-6)]GlcNAc
# Procedure, shortened: as §1
# [31] = molecular target: GlcNAc(b1-3)Gal(b1-4)GlcNAc(b1-3)Gal(b1-4)GlcNAc(b1-3)Gal(b1-4)GlcNAc(b1-2)Man(a1-3)[GlcNAc(b1-3)Gal(b1-4)GlcNAc(b1-3)Gal(b1-4)GlcNAc(b1-3)Gal(b1-4)GlcNAc(b1-2)Man(a1-6)]Man(b1-4)GlcNAc(b1-4)GlcNAc
# Procedure, shortened: as §1
# [32] = molecular target: GlcNAc(b1-3)Gal(b1-4)GlcNAc(b1-3)Gal(b1-4)GlcNAc(b1-3)Gal(b1-4)GlcNAc(b1-2)Man(a1-3)[GlcNAc(b1-3)Gal(b1-4)GlcNAc(b1-3)Gal(b1-4)GlcNAc(b1-3)Gal(b1-4)GlcNAc(b1-2)Man(a1-6)]Man(b1-4)GlcNAc(b1-4)[Fuc(a1-6)]GlcNAc
# Procedure, shortened: as §1
# [33] = molecular target: GlcNAc(b1-3)Gal(b1-4)GlcNAc(b1-3)Gal(b1-4)GlcNAc(b1-3)Gal(b1-4)GlcNAc(b1-2)[GlcNAc(b1-3)Gal(b1-4)GlcNAc(b1-3)Gal(b1-4)GlcNAc(b1-3)Gal(b1-4)GlcNAc(b1-6)]Man(a1-6)[GlcNAc(b1-3)Gal(b1-4)GlcNAc(b1-3)Gal(b1-4)GlcNAc(b1-3)Gal(b1-4)GlcNAc(b1-2)Man(a1-3)]Man(b1-4)GlcNAc(b1-4)[Fuc(a1-6)]GlcNAc
# Procedure, shortened: as §1
# [34] = molecular target: GlcNAc(b1-3)Gal(b1-4)GlcNAc(b1-3)Gal(b1-4)GlcNAc(b1-3)Gal(b1-4)GlcNAc(b1-3)Gal(b1-4)GlcNAc(b1-2)Man(a1-3)[GlcNAc(b1-3)Gal(b1-4)GlcNAc(b1-3)Gal(b1-4)GlcNAc(b1-3)Gal(b1-4)GlcNAc(b1-3)Gal(b1-4)GlcNAc(b1-2)Man(a1-6)]Man(b1-4)GlcNAc(b1-4)GlcNAc
# Procedure, shortened: as §1
# [35] = molecular target: GlcNAc(b1-3)Gal(b1-4)GlcNAc(b1-3)Gal(b1-4)GlcNAc(b1-3)Gal(b1-4)GlcNAc(b1-3)Gal(b1-4)GlcNAc(b1-2)Man(a1-3)[GlcNAc(b1-3)Gal(b1-4)GlcNAc(b1-3)Gal(b1-4)GlcNAc(b1-3)Gal(b1-4)GlcNAc(b1-3)Gal(b1-4)GlcNAc(b1-2)Man(a1-6)]Man(b1-4)GlcNAc(b1-4)[Fuc(a1-6)]GlcNAc
# Procedure, shortened: as §1
binder,measurement,setting,value
DC-ASGPR-short (Homo sapiens) (protein) MTRTYENFQYLENKVKVQGFKNGPLPLQSLLQRLRSGPCHLLLSLGLGLLLLVIICVVGFQNSKFQRDLVTLRTDFSNFTSNTVAEIQALTSQGSSLEETIASLKAEVEGFKQERQAVHSEMLLRVQQLVQDLKKLTCQVATLNNNASTEGTCCPVNWVEHQDSCYWFSHSGMSWAEAEKYCQLKNAHLVVINSREEQNFVQKYLGSAYTWMGLSDPEGAWKWVDGTDYATGFQNWKPGQPDDWQGHGLGGGEDCAHFHPDGRWNDDVCQRPYHWVCEAGLGQTSQESH,glycan array binding signal (z-score),[1],-0.279
same,glycan array binding signal (z-score),[2],-0.287
same,glycan array binding signal (z-score),[3],-0.281
same,glycan array binding signal (z-score),[4],-0.273
same,glycan array binding signal (z-score),[5],-0.272
same,glycan array binding signal (z-score),[6],-0.267
same,glycan array binding signal (z-score),[7],-0.287
same,glycan array binding signal (z-score),[8],-0.266
same,glycan array binding signal (z-score),[9],-0.28
same,glycan array binding signal (z-score),[10],-0.279
same,glycan array binding signal (z-score),[11],-0.281
same,glycan array binding signal (z-score),[12],-0.291
same,glycan array binding signal (z-score),[13],-0.277
same,glycan array binding signal (z-score),[14],-0.283
same,glycan array binding signal (z-score),[15],-0.273
same,glycan array binding signal (z-score),[16],-0.268
same,glycan array binding signal (z-score),[17],-0.276
same,glycan array binding signal (z-score),[18],-0.268
same,glycan array binding signal (z-score),[19],-0.275
same,glycan array binding signal (z-score),[20],-0.282
same,glycan array binding signal (z-score),[21],-0.276
same,glycan array binding signal (z-score),GlcNAc(b1-3)Fuc,-0.264
same,glycan array binding signal (z-score),GlcNAc(b1-3)Gal,-0.307
same,glycan array binding signal (z-score),[22],-0.241
same,glycan array binding signal (z-score),GlcNAc(b1-3)Gal(b1-4)Glc,-0.282
same,glycan array binding signal (z-score),[23],-0.286
same,glycan array binding signal (z-score),[24],-0.28
same,glycan array binding signal (z-score),[25],-0.24
same,glycan array binding signal (z-score),[26],-0.159
same,glycan array binding signal (z-score),[27],-0.285
same,glycan array binding signal (z-score),[28],-0.247
same,glycan array binding signal (z-score),[29],-0.215
same,glycan array binding signal (z-score),[30],-0.224
same,glycan array binding signal (z-score),[31],-0.258
same,glycan array binding signal (z-score),[32],-0.191
same,glycan array binding signal (z-score),[33],-0.236
same,glycan array binding signal (z-score),[34],-0.245
same,glycan array binding signal (z-score),[35],-0.179
